Reference: a compilation of properties of binary mixtures (doi:10.1039/c7cp05886a)
The densities may have been worked out from excess volumes.

Test: xn = mol fraction of the nth substance listed
Conditions: 298.15 K, 100 kPa

CCCCOC(C)=O + CCCC[n+]1ccn(C)c1.O=S(=O)([N-]S(=O)(=O)C(F)(F)F)C(F)(F)F
Conditions	mass density [kg/m3]
x1 = 0.2414	1367.9
x1 = 0.481	1275.4
x1 = 0.6824	1168.2
x1 = 0.7372	1128.1
x1 = 0.7923	1086
x1 = 0.8427	1043.9

CCCCCCCCn1cc[n+](C)c1.O=S(=O)([N-]S(=O)(=O)C(F)(F)F)C(F)(F)F + CCCCOC(C)=O
Conditions	mass density [kg/m3]
x2 = 0.2622	1274.6
x2 = 0.5001	1205.5
x2 = 0.7503	1094.5
x2 = 0.797	1064.7
x2 = 0.8503	1026.6
x2 = 0.8976	985
x2 = 0.9305	954.6

CCCCCCCC[n+]1ccccc1.O=S(=O)([N-]S(=O)(=O)C(F)(F)F)C(F)(F)F + CCCCOC(C)=O
Conditions	mass density [kg/m3]
x2 = 0	1329
x2 = 0.2556	1279.4
x2 = 0.501	1208.7
x2 = 0.6984	1124.1
x2 = 0.7522	1091.9
x2 = 0.7996	1061.3
x2 = 0.8487	1021.8
x2 = 0.8996	984.1
x2 = 0.9493	934.9

CCCCCCCC[N+]1(C)CCCC1.O=S(=O)([N-]S(=O)(=O)C(F)(F)F)C(F)(F)F + CCCCOC(C)=O
Conditions	mass density [kg/m3]
x2 = 0	1289
x2 = 0.4969	1183.6
x2 = 0.6954	1107.5
x2 = 0.7499	1082.1
x2 = 0.8031	1048.1
x2 = 0.8484	1017.6
x2 = 0.9016	975.7
x2 = 0.9431	937.7
